Data as given in article PMC3602376.
These are yes or no findings as the source states them, for the method shown. Some binding calls cover weakened binding; strength is not graded here. For part of these data: Tags and fused reporters may be left off the sequences shown.

T1: NF-YB1 (Arabidopsis thaliana) (UniProt Q9SLG0)
T1 sequence: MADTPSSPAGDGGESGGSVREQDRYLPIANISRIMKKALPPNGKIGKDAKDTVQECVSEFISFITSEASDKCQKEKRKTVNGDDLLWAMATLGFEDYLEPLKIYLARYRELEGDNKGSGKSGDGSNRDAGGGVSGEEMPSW

T2: NF-YB2 (NUCLEAR FACTOR Y, subunit B2), full length (Arabidopsis thaliana (Col-0 cDNA)) (UniProt Q9FGJ3)
T2 sequence: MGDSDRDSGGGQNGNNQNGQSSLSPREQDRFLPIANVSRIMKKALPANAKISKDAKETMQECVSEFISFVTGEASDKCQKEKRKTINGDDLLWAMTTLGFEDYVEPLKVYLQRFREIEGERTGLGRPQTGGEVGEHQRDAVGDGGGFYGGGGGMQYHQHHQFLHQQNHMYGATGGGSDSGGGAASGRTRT

T3: NF-YB3, full length (Arabidopsis thaliana (Col-0 cDNA)) (UniProt O23310)
T3 sequence: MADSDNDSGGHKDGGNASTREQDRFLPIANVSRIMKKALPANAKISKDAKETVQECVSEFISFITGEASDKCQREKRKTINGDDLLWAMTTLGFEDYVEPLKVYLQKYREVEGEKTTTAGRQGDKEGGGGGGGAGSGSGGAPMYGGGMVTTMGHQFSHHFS

T4: NF-YC4, full length (Arabidopsis thaliana (Col-0 cDNA)) (UniProt Q9FMV5)
T4 sequence: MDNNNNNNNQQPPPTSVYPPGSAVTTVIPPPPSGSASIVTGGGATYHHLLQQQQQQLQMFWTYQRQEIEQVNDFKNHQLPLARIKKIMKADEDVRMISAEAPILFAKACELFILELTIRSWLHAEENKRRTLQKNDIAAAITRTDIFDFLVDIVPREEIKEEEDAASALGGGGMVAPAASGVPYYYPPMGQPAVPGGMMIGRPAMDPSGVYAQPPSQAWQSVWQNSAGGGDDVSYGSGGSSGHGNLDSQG

T5: NF-YC9, full length (Arabidopsis thaliana (Col-0 cDNA)) (UniProt Q8L4B2)
T5 sequence: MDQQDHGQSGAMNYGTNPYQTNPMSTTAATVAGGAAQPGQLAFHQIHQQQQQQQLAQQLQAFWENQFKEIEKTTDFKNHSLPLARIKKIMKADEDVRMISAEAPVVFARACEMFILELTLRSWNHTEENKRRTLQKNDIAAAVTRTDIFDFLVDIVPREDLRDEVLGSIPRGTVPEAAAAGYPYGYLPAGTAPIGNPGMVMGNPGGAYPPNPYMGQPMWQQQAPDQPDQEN

T6: NF-YB2 C-terminal region (B2C, AA 122–190) (Arabidopsis thaliana (Col-0 cDNA)) (UniProt Q9FGJ3)
T6 sequence: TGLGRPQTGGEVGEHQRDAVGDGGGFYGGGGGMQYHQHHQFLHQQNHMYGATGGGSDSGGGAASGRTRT

T7: NF-YB2 N-terminal region (B2N, AA 1–25) (Arabidopsis thaliana (Col-0 cDNA)) (UniProt Q9FGJ3)
T7 sequence: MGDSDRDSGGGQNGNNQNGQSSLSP

T8: NF-YB2 conserved histone fold motif (B2HFM, AA 26–121) (Arabidopsis thaliana (Col-0 cDNA)) (UniProt Q9FGJ3)
T8 sequence: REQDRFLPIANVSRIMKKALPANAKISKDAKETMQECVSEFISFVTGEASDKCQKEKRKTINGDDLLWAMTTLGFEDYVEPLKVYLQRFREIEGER

T9: NF-YC4, full length (Arabidopsis thaliana (Col-0 cDNA)), Q9FMV5
T9 chain: T4 sequence

B1: ABA BINDING FACTOR 1 (ABF1), full length (protein, UniProt Q9M7Q5 1-392)
chain: MGTHIDINNLGGDTSRGNESKPLARQSSLYSLTFDELQSTLGEPGKDFGSMNMDELLKNIWTAEDTQAFMTTTSSVAAPGPSGFVPGGNGLQRQGSLTLPRTLSQKTVDEVWKYLNSKEGSNGNTGTDALERQQTLGEMTLEDFLLRAGVVKEDNTQQNENSSSGFYANNGAAGLEFGFGQPNQNSISFNGNNSSMIMNQAPGLGLKVGGTMQQQQQPHQQQLQQPHQRLPPTIFPKQANVTFAAPVNMVNRGLFETSADGPANSNMGGAGGTVTATSPGTSSAENNTWSSPVPYVFGRGRRSNTGLEKVVERRQKRMIKNRESAARSRARKQAYTLELEAEIESLKLVNQDLQKKQAEIMKTHNSELKEFSKQPPLLAKRQCLRRTLTGPW
B2: ABA BINDING FACTOR 2 (ABF2), full length (protein, UniProt Q9M7Q4 1-416)
chain: MDGSMNLGNEPPGDGGGGGGLTRQGSIYSLTFDEFQSSVGKDFGSMNMDELLKNIWSAEETQAMASGVVPVLGGGQEGLQLQRQGSLTLPRTLSQKTVDQVWKDLSKVGSSGVGGSNLSQVAQAQSQSQSQRQQTLGEVTLEEFLVRAGVVREEAQVAARAQIAENNKGGYFGNDANTGFSVEFQQPSPRVVAAGVMGNLGAETANSLQVQGSSLPLNVNGARTTYQQSQQQQPIMPKQPGFGYGTQMGQLNSPGIRGGGLVGLGDQSLTNNVGFVQGASAAIPGALGVGAVSPVTPLSSEGIGKSNGDSSSLSPSPYMFNGGVRGRKSGTVEKVVERRQRRMIKNRESAARSRARKQAYTVELEAEVAKLKEENDELQRKQARIMEMQKNQETEMRNLLQGGPKKKLRRTESGPW
B3: ABA BINDING FACTOR 3 (ABF3), full length (protein, UniProt Q9M7Q3 1-454)
chain: MGSRLNFKSFVDGVSEQQPTVGTSLPLTRQNSVFSLTFDEFQNSWGGGIGKDFGSMNMDELLKNIWTAEESHSMMGNNTSYTNISNGNSGNTVINGGGNNIGGLAVGVGGESGGFFTGGSLQRQGSLTLPRTISQKRVDDVWKELMKEDDIGNGVVNGGTSGIPQRQQTLGEMTLEEFLVRAGVVREEPQPVESVTNFNGGFYGFGSNGGLGTASNGFVANQPQDLSGNGVAVRQDLLTAQTQPLQMQQPQMVQQPQMVQQPQQLIQTQERPFPKQTTIAFSNTVDVVNRSQPATQCQEVKPSILGIHNHPMNNNLLQAVDFKTGVTVAAVSPGSQMSPDLTPKSALDASLSPVPYMFGRVRKTGAVLEKVIERRQKRMIKNRESAARSRARKQAYTMELEAEIAQLKELNEELQKKQVEIMEKQKNQLLEPLRQPWGMGCKRQCLRRTLTGPW
B4: ABA BINDING FACTOR 4 (ABF4), full length (protein, UniProt Q9M7Q2 1-431)
chain: MGTHINFNNLGGGGHPGGEGSSNQMKPTGSVMPLARQSSVYSLTFDELQNTLGGPGKDFGSMNMDELLKSIWTAEEAQAMAMTSAPAATAVAQPGAGIPPPGGNLQRQGSLTLPRTISQKTVDEVWKCLITKDGNMEGSSGGGGESNVPPGRQQTLGEMTLEEFLFRAGVVREDNCVQQMGQVNGNNNNGFYGNSTAAGGLGFGFGQPNQNSITFNGTNDSMILNQPPGLGLKMGGTMQQQQQQQQLLQQQQQQMQQLNQPHPQQRLPQTIFPKQANVAFSAPVNITNKGFAGAANNSINNNNGLASYGGTGVTVAATSPGTSSAENNSLSPVPYVLNRGRRSNTGLEKVIERRQRRMIKNRESAARSRARKQAYTLELEAEIEKLKKTNQELQKKQAEMVEMQKNELKETSKRPWGSKRQCLRRTLTGPW
B5: ELONGATED HYPOCOTYL 5 (HY5), full length, O24646 1-168 (protein)
chain: MQEQATSSLAASSLPSSSERSSSSAPHLEIKEGIESDEEIRRVPEFGGEAVGKETSGRESGSATGQERTQATVGESQRKRGRTPAEKENKRLKRLLRNRVSAQQARERKKAYLSELENRVKDLENKNSELEERLSTLQNENQMLRHILKNTTGNKRGGGGGSNADASL

Tests used:
Test in all cases: two-hybrid; directed Y2H, ProQuest Two-Hybrid System (pDEST22, pDEST32); NF-YB or NF-YC constructs fused to DBD, bZIP proteins fused to AD; beta-galactosidase (X-Gal) reporter, similar activation seen for two other reporters
[1] = molecular target: T1, NF-YB1 (Arabidopsis thaliana)
[2] = molecular target: T2, NF-YB2 (NUCLEAR FACTOR Y, subunit B2), full length (Arabidopsis thaliana (Col-0 cDNA))
[3] = molecular target: T3, NF-YB3, full length (Arabidopsis thaliana (Col-0 cDNA))
[4] = molecular target: T4, NF-YC4, full length (Arabidopsis thaliana (Col-0 cDNA))
[5] = molecular target: T5, NF-YC9, full length (Arabidopsis thaliana (Col-0 cDNA))
[6] = molecular target: T6, NF-YB2 C-terminal region (B2C, AA 122–190) (Arabidopsis thaliana (Col-0 cDNA))
[7] = molecular target: T7, NF-YB2 N-terminal region (B2N, AA 1–25) (Arabidopsis thaliana (Col-0 cDNA))
[8] = molecular target: T8, NF-YB2 conserved histone fold motif (B2HFM, AA 26–121) (Arabidopsis thaliana (Col-0 cDNA))
[9] = molecular target: T9, NF-YC4, full length (Arabidopsis …); details: remark: other sources report otherwise

Binder	binding [1]	binding [2]	binding [3]	binding [4]	binding [5]	binding [6]	binding [7]	binding [8]	binding [9]
B1	no binding	no binding	no binding	binds	binds	–	–	–	–
B2	no binding	no binding	no binding	binds	binds	–	–	–	–
B3	no binding	binds	no binding	binds	binds	no binding	no binding	no binding	–
B4	no binding	no binding	no binding	binds	binds	–	–	–	–
B5	–	–	–	–	–	–	–	–	binds
